# Results from PMC9911399, “Two distinct binding modes provide the RNA-binding protein RbFox with extraordinary sequence specificity”.
# Substitutions are numbered along the chain they refer to; changes in the protein carry UniProt numbers. The list shows a part of the results.
# T1: RBFOX1 RRM RbFoxmut (Fox-RRM*) (Homo sapiens, UniProt Q9NWB1 109-208, R118D;E147R;N151S;E152T)
# T1 sequence: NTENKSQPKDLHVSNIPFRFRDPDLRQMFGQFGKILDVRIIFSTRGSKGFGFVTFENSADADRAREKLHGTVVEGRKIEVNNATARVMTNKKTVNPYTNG
# B1: ACACGGG (DNA:RNA)
# RNA: GGGAGACCGGAAUUCAGAUUGUCCACACGGGUUAAAUCCCGUCGUAGCCACCA
# DNA 1: CAATCTGAATTCCGGTCTCCC
# DNA 2: TGGTGGCTACGACGGGATT
# B2: UGAGAAC (DNA:RNA)
# RNA: B1 RNA with A25U, C26G, C28G, G29A, G30A, G31C
# DNA 1: CAATCTGAATTCCGGTCTCCC
# DNA 2: TGGTGGCTACGACGGGATT
# B3: AUAGGGG (DNA:RNA)
# RNA: B1 RNA with C26U, C28G
# DNA 1: CAATCTGAATTCCGGTCTCCC
# DNA 2: TGGTGGCTACGACGGGATT
# B4: ACUUGUU (DNA:RNA)
# RNA: B1 RNA with A27U, C28U, G30U, G31U
# DNA 1: CAATCTGAATTCCGGTCTCCC
# DNA 2: TGGTGGCTACGACGGGATT
# B5: AUGUGCU (DNA:RNA)
# RNA: B1 RNA with C26U, A27G, C28U, G30C, G31U
# DNA 1: CAATCTGAATTCCGGTCTCCC
# DNA 2: TGGTGGCTACGACGGGATT
# B6: UCCAUGC (DNA:RNA)
# RNA: B1 RNA with A25U, A27C, C28A, G29U, G31C
# DNA 1: CAATCTGAATTCCGGTCTCCC
# DNA 2: TGGTGGCTACGACGGGATT
# B7: UGGAGCC (DNA:RNA)
# RNA: B1 RNA with A25U, C26G, A27G, C28A, G30C, G31C
# DNA 1: CAATCTGAATTCCGGTCTCCC
# DNA 2: TGGTGGCTACGACGGGATT
# B8: CCUCUAA (DNA:RNA)
# RNA: B1 RNA with A25C, A27U, G29U, G30A, G31A
# DNA 1: CAATCTGAATTCCGGTCTCCC
# DNA 2: TGGTGGCTACGACGGGATT
# B9: AAAGACC (DNA:RNA)
# RNA: B1 RNA with C26A, C28G, G29A, G30C, G31C
# DNA 1: CAATCTGAATTCCGGTCTCCC
# DNA 2: TGGTGGCTACGACGGGATT
# B10: CCCCUAA (DNA:RNA)
# RNA: B1 RNA with A25C, A27C, G29U, G30A, G31A
# DNA 1: CAATCTGAATTCCGGTCTCCC
# DNA 2: TGGTGGCTACGACGGGATT
# B11: AGGACUA (DNA:RNA)
# RNA: B1 RNA with C26G, A27G, C28A, G29C, G30U, G31A
# DNA 1: CAATCTGAATTCCGGTCTCCC
# DNA 2: TGGTGGCTACGACGGGATT
# B12: UUACCAU (DNA:RNA)
# RNA: B1 RNA with A25U, C26U, G29C, G30A, G31U
# DNA 1: CAATCTGAATTCCGGTCTCCC
# DNA 2: TGGTGGCTACGACGGGATT
# B13: GUACCAU (DNA:RNA)
# RNA: B1 RNA with A25G, C26U, G29C, G30A, G31U
# DNA 1: CAATCTGAATTCCGGTCTCCC
# DNA 2: TGGTGGCTACGACGGGATT
# B14: AAUAACU (DNA:RNA)
# RNA: B1 RNA with C26A, A27U, C28A, G29A, G30C, G31U
# DNA 1: CAATCTGAATTCCGGTCTCCC
# DNA 2: TGGTGGCTACGACGGGATT
# B15: UUGCUCU (DNA:RNA)
# RNA: B1 RNA with A25U, C26U, A27G, G29U, G30C, G31U
# DNA 1: CAATCTGAATTCCGGTCTCCC
# DNA 2: TGGTGGCTACGACGGGATT
# B16: ACUCGUA (DNA:RNA)
# RNA: B1 RNA with A27U, G30U, G31A
# DNA 1: CAATCTGAATTCCGGTCTCCC
# DNA 2: TGGTGGCTACGACGGGATT
# B17: AAUCUGC (DNA:RNA)
# RNA: B1 RNA with C26A, A27U, G29U, G31C
# DNA 1: CAATCTGAATTCCGGTCTCCC
# DNA 2: TGGTGGCTACGACGGGATT
# B18: UGAAAUC (DNA:RNA)
# RNA: B1 RNA with A25U, C26G, C28A, G29A, G30U, G31C
# DNA 1: CAATCTGAATTCCGGTCTCCC
# DNA 2: TGGTGGCTACGACGGGATT
# B19: CGUGCAC (DNA:RNA)
# RNA: GGGAGACCGGAAUUCAGAUUGUCCCGUGCACUUAAAUCCCGUCGUAGCCACCA
# DNA 1: CAATCTGAATTCCGGTCTCCC
# DNA 2: TGGTGGCTACGACGGGATT
# B20: CGCACGC (DNA:RNA)
# RNA: B19 RNA with U27C, G28A, A30G
# DNA 1: CAATCTGAATTCCGGTCTCCC
# DNA 2: TGGTGGCTACGACGGGATT
# B21: GGCGUAG (DNA:RNA)
# RNA: B19 RNA with C25G, U27C, C29U, C31G
# DNA 1: CAATCTGAATTCCGGTCTCCC
# DNA 2: TGGTGGCTACGACGGGATT
# B22: AGUCACA (DNA:RNA)
# RNA: B1 RNA with C26G, A27U, G29A, G30C, G31A
# DNA 1: CAATCTGAATTCCGGTCTCCC
# DNA 2: TGGTGGCTACGACGGGATT
# B23: CUGCCGA (DNA:RNA)
# RNA: B1 RNA with A25C, C26U, A27G, G29C, G31A
# DNA 1: CAATCTGAATTCCGGTCTCCC
# DNA 2: TGGTGGCTACGACGGGATT
# B24: AUACCGU (DNA:RNA)
# RNA: B1 RNA with C26U, G29C, G31U
# DNA 1: CAATCTGAATTCCGGTCTCCC
# DNA 2: TGGTGGCTACGACGGGATT
# B25: GUGACUU (DNA:RNA)
# RNA: B19 RNA with C25G, G26U, U27G, G28A, A30U, C31U
# DNA 1: CAATCTGAATTCCGGTCTCCC
# DNA 2: TGGTGGCTACGACGGGATT
# B26: CCUUCCC (DNA:RNA)
# RNA: B19 RNA with G26C, G28U, A30C
# DNA 1: CAATCTGAATTCCGGTCTCCC
# DNA 2: TGGTGGCTACGACGGGATT
# B27: AGUAAUC (DNA:RNA)
# RNA: B19 RNA with C25A, G28A, C29A, A30U
# DNA 1: CAATCTGAATTCCGGTCTCCC
# DNA 2: TGGTGGCTACGACGGGATT
# B28: AAGUGGA (DNA:RNA)
# RNA: B1 RNA with C26A, A27G, C28U, G31A
# DNA 1: CAATCTGAATTCCGGTCTCCC
# DNA 2: TGGTGGCTACGACGGGATT
# B29: GAUAUCA (DNA:RNA)
# RNA: B19 RNA with C25G, G26A, G28A, C29U, A30C, C31A
# DNA 1: CAATCTGAATTCCGGTCTCCC
# DNA 2: TGGTGGCTACGACGGGATT
# B30: UCCACAU (DNA:RNA)
# RNA: B19 RNA with C25U, G26C, U27C, G28A, C31U
# DNA 1: CAATCTGAATTCCGGTCTCCC
# DNA 2: TGGTGGCTACGACGGGATT
# B31: UGUUAGU (DNA:RNA)
# RNA: B19 RNA with C25U, G28U, C29A, A30G, C31U
# DNA 1: CAATCTGAATTCCGGTCTCCC
# DNA 2: TGGTGGCTACGACGGGATT
# Target: T1, RBFOX1 RRM RbFoxmut (Fox-RRM*)
# Experiment: EMSA; HiTS-Eq, 1 nM pool, 10 min; buffer printed only for the single-RNA assays: 10 mM Tris pH 7.5, 150 mM NaCl, 3.4 mM EDTA, 0.001% NP-40, 30 C
# Conditions: tags: His6 N-terminal (pET28a); label: 5' 32P
# In short: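 Purified RbFox RRM, wild type or mutant, was incubated for 10 min in 50 µL with 1 nM of a 5′-radiolabelled RNA pool carrying 7 randomized nucleotides, whose flanks were annealed to DNA oligonucleotides, over a series of increasing protein concentrations. Unbound RNA was resolved on 8% native PAGE, cut out, reverse-transcribed, barcoded by PCR and sequenced on an Illumina HiSeq 2500. Relative association constants were derived from changes in read counts for each RNA species versus the control reaction and normalised to the cognate motif.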
row,Binder,binding signal
1,B1,0.0642 KA relative to UGCAUGU
2,B2,0.0827 KA relative to UGCAUGU
3,B3,0.0891 KA relative to UGCAUGU
4,B4,0.156 KA relative to UGCAUGU
5,B5,0.132 KA relative to UGCAUGU
6,B6,0.13 KA relative to UGCAUGU
7,B7,0.148 KA relative to UGCAUGU
8,B8,0.129 KA relative to UGCAUGU
9,B9,0.079 KA relative to UGCAUGU
10,B10,0.133 KA relative to UGCAUGU
11,B11,0.0812 KA relative to UGCAUGU
12,B12,0.0766 KA relative to UGCAUGU
13,B13,0.0938 KA relative to UGCAUGU
14,B14,0.0965 KA relative to UGCAUGU
15,B15,0.0745 KA relative to UGCAUGU
16,B16,0.141 KA relative to UGCAUGU

row,Binder,binding signal
1,B17,0.0446 KA relative to UGCAUGU
2,B18,0.0522 KA relative to UGCAUGU
3,B19,0.0939 KA relative to UGCAUGU
4,B20,0.117 KA relative to UGCAUGU
5,B21,0.106 KA relative to UGCAUGU
6,B22,0.0708 KA relative to UGCAUGU
7,B23,0.066 KA relative to UGCAUGU
8,B24,0.101 KA relative to UGCAUGU
9,B25,0.0656 KA relative to UGCAUGU
10,B26,0.057 KA relative to UGCAUGU
11,B27,0.0534 KA relative to UGCAUGU
12,B28,0.0619 KA relative to UGCAUGU
13,B29,0.0845 KA relative to UGCAUGU
14,B30,0.114 KA relative to UGCAUGU
15,B31,0.196 KA relative to UGCAUGU
